Common to all, as to assay: Primary Screen for Target Class Profiling of Small Molecule Inhibitors of Methyltransferases
Test [1] addresses Glycine N-methyltransferase (Homo sapiens) (UniProt Q14749). As to conditions: purified enzyme, MTase-Glo SAH luminescence; measured here: GNMT inhibition; at 40 µM; stronger effect = lower value. From the text: (§1) PI: Matthew D. Hall Ph.D. and Quinlin M. Hanson Ph.D.
(§2) National Center for Advancing Translational Sciences (NCATS)
(§3) National Institute of Health (NIH), Rockville, MD
(§4) Target class profiling (TCP) is a chemical biology approach amenable to investigating understudied biological targets. TCP is achieved by developing a generalizable assay platform and applying it to screen a curated set of compound libraries against representative members of a target class. Small molecule methyltransferases (SMMTase) are a subclass of methyltransferase that act on metabolites to modulate signaling pathways, metabolize xenobiotics, or balance the available methyl pool. We screened four curated libraries totaling 27,574 unique compounds against the SMMTases nicotinamide N-methyltransferase (NNMT), phenylethanolamine N-methyltransferase (PNMT), histamine N-methyltransferase (HNMT), glycine N-methyltransferase (GNMT), catechol O-methyltransferase (COMT), and guanidinoacetate N-methyltransferase (GAMT). The data generated by this TCP can be leveraged for informed tool molecule development. For example, in the associated publication we identified a chemotype of HNMT-selective inhibitors. Additionally, we identified a putative SMMTase-selective inhibitor with potential as a tool molecule for studying broader methyltransferase biology.
(§5) High-through put screening assays were developed at the National Center for Advancing Translational Science (NCATS) for the enzymes NNMT, PNMT, HNMT, GNMT, COMT, and GAMT. Enzymatic activity was measured as a function of SAM cofactor conversion using the MTase Glo kit (Promega) for all enzymes. All assays were performed in 1536-well format with substrates and SAM concentrations at KM values. Enzyme concentration and assay timing were optimized for 10-20% SAM conversion. Initial screening of 27,574 compounds was done as single-point assays using the highest compound concentration (40 uM). […] These compounds were replated in 11-point dose response and assayed against NNMT, PNMT, HNMT, GNMT, COMT, GAMT, and a counter-assay. The IC50 and efficacy (maximal response) values were determined for each dose-response curve. These values are also accounted for in the area under the curve (AUC) values.
(§6) PROTOCOL TABLE (as described by Inglese J, Shamu CE and Guy RK. 2007)
(§7) SEQUENCE No. (e.g., 1, 2, 3, etc.); […] (e.g., Cells, Incubation, Reagent, etc.); VALUE; DESCRIPTION.
(§8) 1; Reagent; 2 uL; SMMTase Enzyme (2x) in reaction buffer, columns 1- 48.
(§9) 2; Reagent; 1 uL; SAM (4x) in reaction buffer, columns 1-48.
(§10) 3; Controls; 23 nL; DMSO in column 4; sinefungin in DMSO (0 uM - 40 uM) in 7-point 1:2 dilution series (n = 2) in column 2.
(§11) 4; Compounds; 23 nL; Columns 5-48.
(§12) 5; Reagent; 1 uL; Substrate (4x) in reaction buffer, columns 2-48.
(§13) 6; Time; 20-30 min; Incubation.
(§14) 7; Reagent; 1 uL; MTase-Glo reagent (5X), columns 1-48.
(§15) 8; Time; 30 min; Incubation.
(§16) 9; Reagent; 5 uL; MTase-Glo Detection reagent, columns 1-48.
(§17) 10; Time; 30 min; Incubation, luminescence evolution.
(§18) 11; Detection; Luminescence; ViewLux uHTS Microplate Imager (PerkinElmer).
(§19) NOTES (numbers refer to Sequence numbers above)
(§20) 1, 2, 5. White Medium Binding Greiner 1536-well plates (Cat #789175-F, Greiner Bio-One, Monroe, NC); Reaction buffer: 50 mM Tris, pH 8.0, 3 mM MgCl2, 1 mM EDTA, 50 mM NaCl, 1 mM DTT, and 0.1 mg/mL BSA. Evaporation was prevented by covering assay plates with metal lids containing holes to allow gas diffusion.
(§21) 1. Six SMMTase were profiled: HNMT, GNMT, PNMT, COMT, NNMT, GAMT
(§22) 5. The corresponding substrate was used for each enzyme: HNMT - 5.3 uM Histamine; GNMT - >500 uM Glycine; PNMT - 16.2 uM Norephinephrine; COMT - 13.7 uM Norephinephrine; NNMT - 3.8 uM Nicotinamide; GAMT - 2.5 uM Guanidinoacetate.6, 8, 10. Room temperature
(§23) 6. Final reaction conditions: 10 nM COMT, 5 uM SAM, 15 uM norepinephrine, 50 mM Tris, pH 8.0, 3 mM MgCl2, 1 mM EDTA, 50 mM NaCl, 1 mM DTT, and 0.1 mg/mL BSA; refer to tables 2 and S1 for specific timing.
8. […]

For test [2], the target named is Guanidinoacetate N-methyltransferase (Homo sapiens) (UniProt Q14353). As to conditions: purified enzyme, MTase-Glo SAH luminescence; measured here: GAMT inhibition; at 40 µM; stronger effect = lower value.
Text: as §1, §2, §3, §4, §5, §6, §7, §8, §9, §10, §11, §12, §13, §14, §15, §16, §17, §18, §19, §20, §21, §22, §23
8. […]

Test [3] concerns the target Histamine N-methyltransferase (Homo sapiens) (UniProt P50135). As to conditions: purified enzyme, MTase-Glo SAH luminescence; measured here: HNMT inhibition; at 40 µM; stronger effect = lower value.
Text: as §1, §2, §3, §4, §5, §6, §7, §8, §9, §10, §11, §12, §13, §14, §15, §16, §17, §18, §19, §20, §21, §22, §23
8. […]

The target in test [4] is Nicotinamide N-methyltransferase (Homo sapiens) (UniProt P40261). As to conditions: purified enzyme, MTase-Glo SAH luminescence; measured here: NNMT inhibition; at 40 µM; stronger effect = lower value.
Text: as §1, §2, §3, §4, §5, §6, §7, §8, §9, §10, §11, §12, §13, §14, §15, §16, §17, §18, §19, §20, §21, §22, §23
8. […]

Test [5] deals with Phenylethanolamine N-methyltransferase (Homo sapiens) (UniProt P11086). To be noted: purified enzyme, MTase-Glo SAH luminescence; measured here: PNMT inhibition; at 40 µM; stronger effect = lower value.
Text: as §1, §2, §3, §4, §5, §6, §7, §8, §9, §10, §11, §12, §13, §14, §15, §16, §17, §18, §19, §20, §21, §22, §23
8. […]

The list shows a part of the results. The main result of the screen is listed elsewhere. These columns were measured beside it and carry no call.
% is scaled to controls: 0 for no effect and ±100 for the full control effect.

As for `C=CC(=O)Nc1cc(-n2c(=O)ccc3cnc4ccc(-c5ccc(NS(C)(=O)=O)cc5)cc4c32)ccc1C`, the activity change, negative = inhibition in test [1] was -35.1%; in test [2] it was -19.2%; in test [3], -0.494%; in test [4] it was -25.5%; in test [5] it was -16%.

Turning to `COc1ccccc1N1CCN(CCCCN2C(=O)c3ccccc3C2=O)CC1`, the activity change, negative = inhibition is -8.94% in test [1]; 0.45% in test [2]; -4.21% in test [3]; -11% in test [4]; 5.16% in test [5].

On to `O=C(Cn1nc(-c2ccccc2)c2ccccc21)N1CCN(c2cccc(C(F)(F)F)c2)CC1`, for which the activity change, negative = inhibition worked out at 1.77% in test [1]; 1.73% in test [2]; 10.8% in test [3]; 7.86% in test [4]; 2.83% in test [5].

Regarding `COCC1OC(OC(C)(C)C2CCC3(C)C=C(C4CCC5C4(C)CC(O)C4OC(C(C)(C)OC6OC(CO)C(O)C(O)C6NC(C)=O)CCC45C)CCC3O2)C(NC(C)=O)C(O)C1O` (stereo not given), the activity change, negative = inhibition in test [1] was 2.89%; in test [2] it was 15.9%; in test [3] it was 5.46%; in test [4], 3.2%; in test [5], 2.63%.

Turning to `COc1ccc(CNC(=O)C2(C)Cn3cnc(C(=O)NCc4ccccc4)c3C(=O)N2C2CC2)cc1` (stereo not given), the activity change, negative = inhibition in test [1] was 3.19%; in test [2], 2.4%; in test [3], 15.5%; in test [4], 5.43%; in test [5], 10.6%.

As for `O=C(c1ccc(Cl)cc1)N1CCN(Cc2ccccc2-c2cccnc2)CC1`, the activity change, negative = inhibition in test [1] was -6.72%; in test [2], -5.3%; in test [3], -6.56%; in test [4], -13.4%; in test [5], -5.45%.

As for `Cc1cc(CN2C[C@@H](CO)[C@H](NC(=O)C3CCC3)C2)n(C)n1`, the activity change, negative = inhibition in test [1] was 0.204%; in test [2], 2.89%; in test [3], 2.4%; in test [4], 0.337%; in test [5], 4.29%.

Turning to `N#Cc1ccc(O[C@@H]2COCC[C@H]2NC(=O)Cn2nnnc2N)cc1`, the activity change, negative = inhibition is -8.29% in test [1]; -11% in test [2]; -2.7% in test [3]; -18.5% in test [4]; -4.68% in test [5].

In the case of `CCC(C)NC(=O)c1ccc2c(=O)n(C(C)C)c3nn(CC(=O)c4ccc(F)cc4)c(=O)n3c2c1` (stereo not given), the activity change, negative = inhibition came out at 5.33% in test [1]; 0% in test [2]; 4.29% in test [3]; 2.13% in test [4]; 5.31% in test [5].

Regarding `C1=Cc2ccccc2C(=C2CCN(CCCCc3nn[nH]n3)CC2)c2ccccc21`, the activity change, negative = inhibition in test [1] was -1.47%; in test [2], 11%; in test [3], -9.09%; in test [4], -46.1%; in test [5], 4.9%.

Take `O=C(NCC1CCN(Cc2ccccn2)C1)Nc1ccc(F)cc1` (stereo not given): the activity change, negative = inhibition in test [1] was -5.92%; in test [2], -7.47%; in test [3], -11.5%; in test [4] it was -12.2%; in test [5], -6.67%.

Take `CCCn1c(=O)c2ccc(C(=O)NC(C)C)cc2n2c(SCc3ccccc3)nnc12`: the activity change, negative = inhibition in test [1] was found to be 6.44%; in test [2], 0%; in test [3], 6.42%; in test [4] it was 8.83%; in test [5], 8.24%.

For the compound `CC(=O)Nc1c2n(c3ccc(F)cc13)CC(C)(C(=O)NC1CCCCC1)N(Cc1cccs1)C2=O` (stereo not given), the activity change, negative = inhibition in test [1] was -18.6%; in test [2], -3.56%; in test [3] it was -4.22%; in test [4], -20.6%; in test [5], -4.75%.

In the case of `O=C(N1CCC(Cc2nc(-c3ccc(F)cc3)no2)CC1)C1(c2ccccc2)CC1`, the activity change, negative = inhibition is -11.7% in test [1]; -8.58% in test [2]; -4.53% in test [3]; -18.8% in test [4]; -9.93% in test [5].

These data come from PubChem BioAssay AID1745853 (National Center for Advancing Translational Sciences (NCATS), 2022).
